Measured values: the supplement of paper PMC10037445
The full ranking holds about 2,900 compounds; the median of “IRF Lucia reporter activity, fold change vs agonist alone” is about 0.9, and the highest 2% start at about 2.8. The list shows a part of the results.

Tests used:
[1] = tested on: RAW-Dual; assay: IRF Lucia reporter activity, fold change vs agonist alone; higher = enhanced IRF activity; conditions: library stock concentration (final ~1000-fold dilution): 10 mM, agonist: MPLA (TLR4) […]
Procedure, shortened: (§1)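 Reporter activity is given as fold change relative to agonist-alone wells. To measure it, 50 nL of library stock was pin-tooled onto RAW-Dual macrophages (50,000 cells/well, DMEM, 384-well plates), a PRR agonist followed 1 h later, and cells stayed at 37 °C, 5% CO2. Twenty hours on, supernatant was assayed for IRF (QuantiLuc luminescence) and NF-κB (QuantiBlue, 620 nm absorbance), and wells under 70% of agonist-control IncuCyte confluency in both mask sets were marked cytotoxic.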

[2] = tested on: RAW-Dual; assay: IRF Lucia reporter activity, fold change vs agonist alone; cytotoxicity flag (confluency mask): not cytotoxic; higher = enhanced IRF activity
Procedure, shortened: as §1

[3] = tested on: RAW-Dual; assay: IRF Lucia reporter activity, fold change vs agonist alone; cytotoxicity flag (confluency mask): cytotoxic (confluency <70% of control); higher = enhanced IRF activity
Procedure, shortened: as §1

[4] = cytotoxicity flag (confluency mask): not cytotoxic
[5] = agonist: 3'3'-cGAMP (STING) 10 ug/mL
[6] = cytotoxicity flag (confluency mask): cytotoxic (confluency <70% of control)

## c1ccc(C(c2ccccc2)N2CCN(Cc3ccc4c(c3)OCO4)CC2)cc1
[1]; [4]
  IRF Lucia reporter activity: 0.574

## O=C(O)CCC(=O)c1ccc(-c2ccccc2)cc1 (library stock concentration (final ~1000-fold dilution): 10 mM)
[2]; [5]
  IRF Lucia reporter activity: 1.15
[2]; agonist: LPS (TLR4) 0.1 ug/mL
  IRF Lucia reporter activity: 1.2

## O=C(O)CCC(=O)c1ccc(-c2ccccc2)cc1
[1]; [4]
  IRF Lucia reporter activity: 1.15

## CNc1ccc([N+](=O)[O-])c(Nc2ccc3[nH]ncc3c2)n1 (library stock concentration (final ~1000-fold dilution): 10 mM)
[2]; [5]
  IRF Lucia reporter activity: 0.0349
[2]; agonist: LPS (TLR4) 0.1 ug/mL
  IRF Lucia reporter activity: 0.0346

## O=C(c1ccc(Cl)cc1)N(Cc1ccccc1)C1CCCCC1 (library stock concentration (final ~1000-fold dilution): 10 mM)
[2]; [5]
  IRF Lucia reporter activity: 1.56
[2]; agonist: LPS (TLR4) 0.1 ug/mL
  IRF Lucia reporter activity: 1.11

## O=C(Nc1ccccc1)N1CCN(c2nc(-c3ccccc3)ns2)CC1 (library stock concentration (final ~1000-fold dilution): 10 mM)
[2]; [5]
  IRF Lucia reporter activity: 0.61
[2]; agonist: LPS (TLR4) 0.1 ug/mL
  IRF Lucia reporter activity: 0.914

## O=C(Nc1ccccc1)N1CCN(c2nc(-c3ccccc3)ns2)CC1
[1]; [4]
  IRF Lucia reporter activity: 1.1

## Clc1cccc(CN=C2Nc3ccccc3NC23CCNCC3)c1 (library stock concentration (final ~1000-fold dilution): 10 mM)
[2]; [5]
  IRF Lucia reporter activity: 0.383
[2]; agonist: LPS (TLR4) 0.1 ug/mL
  IRF Lucia reporter activity: 1.2

## C/C(=C\C(=O)OCCCCCCCCC(=O)O)CC1OCC(CC2OC2C(C)C(C)O)C(O)C1O (stereo unspecified) (library stock concentration (final ~1000-fold dilution): 10 mM)
[2]; [5]
  IRF Lucia reporter activity: 1.05
[2]; agonist: LPS (TLR4) 0.1 ug/mL
  IRF Lucia reporter activity: 0.826

## C/C(=C\C(=O)OCCCCCCCCC(=O)O)CC1OCC(CC2OC2C(C)C(C)O)C(O)C1O (stereo unspecified)
[1]; [4]
  IRF Lucia reporter activity: 0.932

## CN(c1ncccc1CNc1nc(Nc2ccc3c(c2)CC(=O)N3)ncc1C(F)(F)F)S(C)(=O)=O
[1]; [6]
  IRF Lucia reporter activity: 0.0179

## CN(c1ncccc1CNc1nc(Nc2ccc3c(c2)CC(=O)N3)ncc1C(F)(F)F)S(C)(=O)=O (library stock concentration (final ~1000-fold dilution): 10 mM)
[3]; [5]
  IRF Lucia reporter activity: 0.015
[3]; agonist: LPS (TLR4) 0.1 ug/mL
  IRF Lucia reporter activity: 0.0167

## CC(=O)N=c1sc(S(N)(=O)=O)nn1C
[1]; [4]
  IRF Lucia reporter activity: 1.08

## CC(=O)N=c1sc(S(N)(=O)=O)nn1C (library stock concentration (final ~1000-fold dilution): 10 mM)
[2]; [5]
  IRF Lucia reporter activity: 1.01
[2]; agonist: LPS (TLR4) 0.1 ug/mL
  IRF Lucia reporter activity: 1.23

## Nc1cc(C(F)(F)F)c(-c2cc(N3CCOCC3)nc(N3CCOCC3)n2)cn1 (library stock concentration (final ~1000-fold dilution): 10 mM)
[2]; [5]
  IRF Lucia reporter activity: 0.171
[2]; agonist: LPS (TLR4) 0.1 ug/mL
  IRF Lucia reporter activity: 1.05

## Nc1cc(C(F)(F)F)c(-c2cc(N3CCOCC3)nc(N3CCOCC3)n2)cn1
[1]; [4]
  IRF Lucia reporter activity: 1.09

## COCCCOc1ccnc(CS(=O)c2nc3ccccc3[nH]2)c1C (stereo unspecified) (library stock concentration (final ~1000-fold dilution): 10 mM)
[2]; [5]
  IRF Lucia reporter activity: 0.92
[2]; agonist: LPS (TLR4) 0.1 ug/mL
  IRF Lucia reporter activity: 1.14

## COCCCOc1ccnc(CS(=O)c2nc3ccccc3[nH]2)c1C (stereo unspecified)
[1]; [4]
  IRF Lucia reporter activity: 1.07

## Cc1ccc(Sc2cncc3sc(C(N)=O)cc23)cc1 (library stock concentration (final ~1000-fold dilution): 10 mM)
[2]; [5]
  IRF Lucia reporter activity: 0.152
[2]; agonist: LPS (TLR4) 0.1 ug/mL
  IRF Lucia reporter activity: 0.134

## Cc1ccc(Sc2cncc3sc(C(N)=O)cc23)cc1
[1]; [4]
  IRF Lucia reporter activity: 0.166

## CC(C)NNC(=O)c1ccncc1
[1]; [4]
  IRF Lucia reporter activity: 0.961

## CC(C)NNC(=O)c1ccncc1 (library stock concentration (final ~1000-fold dilution): 10 mM)
[2]; [5]
  IRF Lucia reporter activity: 0.837
[2]; agonist: LPS (TLR4) 0.1 ug/mL
  IRF Lucia reporter activity: 0.954

## COc1cccc(-c2cc(F)ccc2C2Cc3nc(N)nc(C)c3C(=O)N2)n1 (stereo unspecified) (library stock concentration (final ~1000-fold dilution): 10 mM)
[2]; [5]
  IRF Lucia reporter activity: 0.696
[2]; agonist: LPS (TLR4) 0.1 ug/mL
  IRF Lucia reporter activity: 1.18

## COc1cccc(-c2cc(F)ccc2C2Cc3nc(N)nc(C)c3C(=O)N2)n1 (stereo unspecified)
[1]; [4]
  IRF Lucia reporter activity: 0.941

## O=c1cc(N2CCOCC2)oc2c(-c3ccccc3)cccc12
[1]; [6]
  IRF Lucia reporter activity: 0.627

## O=c1cc(N2CCOCC2)oc2c(-c3ccccc3)cccc12 (library stock concentration (final ~1000-fold dilution): 10 mM)
[3]; [5]
  IRF Lucia reporter activity: 0.353
[3]; agonist: LPS (TLR4) 0.1 ug/mL
  IRF Lucia reporter activity: 0.393

## CC(C)(C)NCC(O)COc1cccc2c1CCC(=O)N2.Cl (stereo unspecified)
[1]; [4]
  IRF Lucia reporter activity: 1.15

## CC(C)(C)NCC(O)COc1cccc2c1CCC(=O)N2.Cl (stereo unspecified) (library stock concentration (final ~1000-fold dilution): 10 mM)
[2]; [5]
  IRF Lucia reporter activity: 0.982
[2]; agonist: LPS (TLR4) 0.1 ug/mL
  IRF Lucia reporter activity: 1.22

## C=CCOc1ccccc1OCC(O)CNC(C)C.Cl (stereo unspecified) (library stock concentration (final ~1000-fold dilution): 10 mM)
[2]; [5]
  IRF Lucia reporter activity: 1.03
[2]; agonist: LPS (TLR4) 0.1 ug/mL
  IRF Lucia reporter activity: 0.805

## C=CCOc1ccccc1OCC(O)CNC(C)C.Cl (stereo unspecified)
[1]; [4]
  IRF Lucia reporter activity: 0.866
